According to PubChem BioAssay AID1346428 (National Center for Advancing Translational Sciences (NCATS), 2018):
The whole screen tested about 48,000 compounds, of which about 1,200 (2.5%) were called active. About 2% were inconclusive and are not listed.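 The calls were made as follows: active = activation of at least 60% and not above a set upper limit (about 1 call in 100 departs from these limits); inconclusive = activation of 40% to 60%, or above that upper limit; inactive = activation under 40%.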 The list shows a part of the results.

molecular target: Probable G-protein coupled receptor 32 (Homo sapiens) (UniProt O75388); test: qHTS for Agonists of Human Resolvin D1 Receptor DRV1; settings: CHO-K1 GPR32 beta-arrestin PathHunter luminescence, 90 min; at 76.9 µM; stronger effect = higher value; zero percent set by DMSO-only wells; also: 0% is about no effect
Chain of UniProt O75388 (O75388 whole entry, looked up): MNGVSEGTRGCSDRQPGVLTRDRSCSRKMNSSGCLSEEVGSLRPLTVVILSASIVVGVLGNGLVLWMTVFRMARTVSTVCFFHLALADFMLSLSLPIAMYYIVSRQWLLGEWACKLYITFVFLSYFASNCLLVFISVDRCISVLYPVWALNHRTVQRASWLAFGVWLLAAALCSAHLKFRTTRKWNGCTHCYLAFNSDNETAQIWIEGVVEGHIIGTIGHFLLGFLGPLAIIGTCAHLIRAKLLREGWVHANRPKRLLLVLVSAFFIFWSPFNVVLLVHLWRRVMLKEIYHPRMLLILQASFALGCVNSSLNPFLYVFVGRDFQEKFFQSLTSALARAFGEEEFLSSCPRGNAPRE
Outline: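 Using DMSO wells as EC0, agonist-induced signal was taken as chemiluminescence from beta-Gal reconstituted upon beta-arrestin recruitment to GPR32 in CHO-K1 cells after 90 min compound treatment.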

activation, active:
O=C(Nc1nonc1-c1ccc(Br)cc1)c1ccco1 71.1%
COc1ccc(S(=O)(=O)Cc2ccc(C(=O)NC3CCCCC3)o2)cc1 89.3%
COc1ccc(NS(=O)(=O)c2ccc(NS(=O)(=O)c3ccc4c(c3)OCCO4)cc2)cc1 68.3%
CC(=O)N/N=C/c1ccc([N+](=O)[O-])o1 68%

activation, inactive:
CC(C)Oc1ccc(CNS(=O)(=O)c2cnc(N)nc2)cc1 -3.74%
CC(C)Cn1cnc2c1c(=O)n(C)c(=O)n2C -8.78%
CCOc1cc(CNCCSc2nnnn2-c2ccccc2)cc(Cl)c1OC 13.3%
CCOc1ccc(CCNC(=O)Cn2nnc(-c3ccc(OC)c(OC)c3)n2)cc1OCC -8.99%
CN1CCN(C(CNC(=O)C(=O)Nc2ccc(F)cc2F)c2ccc3c(c2)OCO3)CC1 (stereo not given) 9.38%
CC(C)(C#N)c1cc(Cn2cncn2)cc(C(C)(C)C#N)c1 -16%
Cc1ccc2nc(-c3ccc(NC(=O)COc4c(C)ccc(C)c4C)cc3)sc2c1 19.2%
COc1cc(NC(=O)c2nnn(CC(=O)Nc3ccccc3)c2N)cc(OC)c1 17.7%
CSc1nc(-c2ccc(F)cc2)nc2c1Cc1c(CO)cnc(C)c1O2 11.8%
CCCc1nn2c(=O)cc(COC(=O)c3ccc(NC(=O)C(C)Oc4ccccc4)cc3)nc2s1 (stereo not given) -14.3%
CCCCNc1nc(Oc2ccc(=O)n(C)n2)nc(N(C)C)n1 -5.4%
O=C(NC1CCCCC1)c1ccc2c(c1)N(Cc1ccccc1)C(=O)c1ccccc1S2 -6.24%
O=C(CN1C(=O)C2(SCC(=O)N2c2ccccc2)c2ccccc21)NCc1ccccc1Cl (stereo not given) -4.91%
COc1ccc(C(=O)c2cn(Cc3ccc(C)cc3)c3cc4c(cc3c2=O)OCO4)cc1 7.38%
COc1cc(NC(=O)CCS(=O)(=O)c2nc(-c3cccs3)cc(C(F)(F)F)n2)cc(OC)c1OC -32.9%
COc1ccccc1-c1noc(CSc2nc3ccc(C)cc3[nH]2)n1 34.3%
O=C(CSc1cn(CC(=O)N2CCCCC2)c2ccccc12)Nc1ccccc1F 5.25%
Cc1ccc2c(CC(=O)Nc3ccccc3C(F)(F)F)coc2c1C -0.704%
CC(CNC(=O)C1CCN(Cc2cc3ccccc3n2Cc2ccccc2)CC1)c1ccccc1 (stereo not given) -24.4%
Cc1c(Cl)cccc1NC(=O)CCn1c(=O)c2cccn2c2ccccc21 -12.6%
CCOc1ccccc1NC(=O)CSc1nccn1-c1ccc(Cl)cc1 -6.74%
COc1ccc(CCNC(=O)c2cc(-c3ccccc3)nc3ccccc23)cc1OC 17.3%
COC(=O)c1scc(-c2ccc(C)cc2)c1S(=O)(=O)Nc1cccc(C(F)(F)F)c1 0.278%
CCn1cc(C(=O)OCC(=O)Nc2cc(C)cc(C)c2)c(=O)c2ccc(C)nc21 20.2%
Cc1nn(CCCC(=O)NCc2ccccc2)c(=O)c2nn(-c3ccccc3)c(C)c12 -4.31%
C[C@@H](O)[C@H]1C(=O)N2C(C(=O)O)=C(S[C@@H]3CN[C@H](CNS(N)(=O)=O)C3)[C@H](C)[C@H]12 11.6%
O=C(CSc1nc2ccccc2c(=O)n1CCC(=O)NC1CCCCC1)Nc1ccccc1Cl -8.54%
COC(=O)c1sc2cccc(F)c2c1S(=O)(=O)Nc1cc(OC)cc(OC)c1 -3.11%
CCOc1ccc(CC(=O)Nc2nnc3n2CCS3)cc1 -1.26%
O=C(CSc1cn(CC(=O)N2CCCCCC2)c2ccccc12)Nc1ccccc1F 8.23%
CCc1nnc2c(NCc3ccccc3OC)nc3ccccc3n12 -8.72%
CC(C)c1nnc(N2C(=O)c3oc4ccccc4c(=O)c3C2c2cccc(O)c2)s1 (stereo not given) -8.19%
CCC(=O)N1CCc2cc(S(=O)(=O)NCCC(=O)Nc3ccc(OC)c(Cl)c3)ccc21 22.3%
CCN(C(=O)C1CCN(S(=O)(=O)c2ccc3c(c2)CCCN3C(=O)C2CCC2)CC1)c1cccc(C)c1 3.31%
Cc1c(Cl)cccc1NC(=O)c1cnc2sc(N3CCCC3)nn2c1=O -0.859%
Cc1ccc(NC(=O)Cn2c(=O)n(CCCCCC(=O)NCc3ccc(F)cc3)c(=O)c3sccc32)c(C)c1 5.47%
COCCN1Cc2cccc(C(=O)Nc3ccc(C)cc3C)c2C1=O 22.8%
COC(=O)CNC(=O)C(Cc1ccccc1)NS(=O)(=O)c1ccc2c(c1)c(=O)n(C)c(=O)n2C (stereo not given) -4.46%
O=C(COc1ccccc1)Nc1ccc(S(=O)(=O)N(Cc2ccccc2)c2ccccc2)cc1 7.15%
Cc1c(C(=O)NCc2ccc(N(C)C)cc2)oc2c1-c1nn(Cc3cccc(Cl)c3)cc1CC2 -30.3%
Cc1cc2c(cc1S(=O)(=O)N1CCC(C)CC1)OCC(=O)N2 -8.36%
COc1ccc(-c2nc(-c3ccccc3)c(-c3ccccc3)[nH]2)cc1Br 7.23%
CCCC12CN3CC(CCC)(CN(C1)C3c1c[nH]c3ccccc13)C2=O (stereo not given) -15.8%
Cc1ccc(-c2nnc(SCC(=O)N3CCc4ccccc43)o2)cc1 1.09%
Cc1cc(C)cc(NC(=O)Cn2c(=O)oc3cc(S(=O)(=O)N4CCCC4)ccc32)c1 -30%
COc1cccc(CNC(=O)c2cnc(N3CCCC3)nc2C)c1 13.8%
COc1ccc(S(=O)(=O)c2cn(C)c3cc(N4CCCC4)c(F)cc3c2=O)cc1 -11.2%
O=S(=O)(c1ccc2ccccc2c1)n1nc(-c2ccco2)nc1NCc1cccc(Cl)c1 -24.3%
Cc1ccc(CNC(=O)c2ccc3c(c2)N(Cc2ccccc2F)C(=O)c2ccccc2S3(=O)=O)cc1 -13.7%
COc1ccc(NC(=O)c2ccco2)cc1NC(=O)COc1ccc(C)cc1C -0.854%
Cc1ccc(NC(=O)CSc2[nH]c(=O)ncc2C)cc1 -7.05%
COc1cccc(Cn2cc(S(=O)(=O)c3ccc(C)cc3)c(=O)c3cc4c(cc32)OCO4)c1 -11.5%
Cc1nc2ccccc2n1CCc1nc2c3ccccc3nc(SCC(=O)Nc3ccc(C(C)C)cc3)n2n1 -7.3%
Cc1ccc(NC(=O)Cc2ccc(NC(=O)N3CCCCc4ccccc43)cc2)cc1 -21.7%
CCCc1ccc(NC(=O)C2CCN(c3cnccn3)CC2)cc1 5.72%
Clc1ccc(CSc2nc3ncccc3[nH]2)cc1 14.4%
Cc1cc(Cl)ccc1NC(=O)CN1C(=O)C(=O)c2ccccc21 -67.5%
CCN1CCN(C(c2ccccc2)c2c(O)cc(C)n(CCOC)c2=O)CC1 (stereo not given) -8.56%
CSc1cccc(NC(=O)Cn2nnc(C(=O)NCCc3ccccc3)c2N)c1 -7.27%
CCCCC(=O)Nc1ccc(C(=O)OCc2cc(=O)n3nc(C4CC4)sc3n2)cc1 -3.27%
COC(=O)C1=C(c2ccccc2)c2ccccc2S(=O)(=O)N1CC(=O)Nc1ccccc1C(F)(F)F -23.9%
Cn1c(=O)n(CCc2ccccc2)c(=O)c2c1nc1n2CCN1c1ccc(Cl)cc1 8%
Cc1cccc(N2CCN(c3ccc(C(=O)O)cc3NC(=O)c3ccccc3F)CC2C)c1 (stereo not given) 8.48%
C=CCN1CCc2nc(N)sc2CC1 4.61%
CC(C(=O)Nc1ccccc1C(F)(F)F)n1nc(-c2ccccc2)c2c(c1=O)CCCC2 (stereo not given) -2.99%
CC(=O)c1ccc(N2CCN(C(=O)Nc3cccc(F)c3)CC2)cc1 1.42%
CCN(CC)c1ccc(C(=O)NCc2ccc3c(c2)CCN3C(C)=O)cc1 -19.9%
Cc1cc(C)c2c(-n3cccc3)c(C(=O)NCCc3ccccc3)sc2n1 3.95%
CC(C)CC(=O)Nc1c(C(=O)N2CCN(c3ccccc3F)CC2)oc2ccccc12 -23.4%
COc1ccc(Br)cc1CNC(=O)c1ccc2c(c1)nc1n2CCCCC1 -4.16%
COc1cccc(C(=O)n2nc(-c3ccco3)nc2NCc2cccs2)c1 -15.2%
CCc1ccc(-c2cc3c(N4CCN(c5ccccc5)CC4)nccn3n2)cc1 12.8%
Cc1cccc(CN2C(=O)c3ccccc3S(=O)(=O)c3ccc(C(=O)N4CCN(c5cc(C)ccc5C)CC4)cc32)c1 20.4%
COc1ccc(NC(=O)N2CCN(c3cc(-c4noc(C)n4)ccc3C)CC2)c(OC)c1 -7.9%
COc1cccc(N2CCN(Cc3nnc(-c4ccc5c(c4)OCO5)o3)CC2)c1 12.1%
CC(C)(C)C1CCc2c(sc(NC(=O)c3ccncc3)c2C(=O)Nc2ccccc2Cl)C1 (stereo not given) 0.048%
Cc1cccc(-c2nc3nc(C)cc(N4CCN(c5ccccc5)CC4)n3n2)c1 -11.5%
COc1ccc(N2CCN(C(=O)CCn3cnc4onc(-c5ccc(F)cc5)c4c3=O)CC2)cc1 -3.89%
COc1ccc(N(CC(=O)NCc2ccc(C)cc2)S(=O)(=O)c2c(C)[nH]c(=O)[nH]c2=O)cc1 -10.4%
Cc1cc(C)cc(N2CCn3c2nc2c3c(=O)n(CCc3ccccc3)c(=O)n2C)c1 9.94%
Cc1c(C(=O)NCc2ccccc2Cl)sc2nc3n(c(=O)c12)CCC3 -11.5%
